Results from article PMC6704105.
Positions count from the first letter of the chain named. In names and notes the source's numbering stands. Read-outs that look alike come from different tables or passages of the source. Results are given in words; binding and its absence hold for the method and conditions named. For some assays here: Binding seen in cells or lysates may run through a third protein. Some entries that bind do so weakly or less than the wild type. For some assays here: Sequences can lack the tags named with a protein. Blank lines part the entries; values can stand above or below the molecule they belong to.

By UniProt entry, the sequences of proteins in these tests, tags left out.
UniProt P35222: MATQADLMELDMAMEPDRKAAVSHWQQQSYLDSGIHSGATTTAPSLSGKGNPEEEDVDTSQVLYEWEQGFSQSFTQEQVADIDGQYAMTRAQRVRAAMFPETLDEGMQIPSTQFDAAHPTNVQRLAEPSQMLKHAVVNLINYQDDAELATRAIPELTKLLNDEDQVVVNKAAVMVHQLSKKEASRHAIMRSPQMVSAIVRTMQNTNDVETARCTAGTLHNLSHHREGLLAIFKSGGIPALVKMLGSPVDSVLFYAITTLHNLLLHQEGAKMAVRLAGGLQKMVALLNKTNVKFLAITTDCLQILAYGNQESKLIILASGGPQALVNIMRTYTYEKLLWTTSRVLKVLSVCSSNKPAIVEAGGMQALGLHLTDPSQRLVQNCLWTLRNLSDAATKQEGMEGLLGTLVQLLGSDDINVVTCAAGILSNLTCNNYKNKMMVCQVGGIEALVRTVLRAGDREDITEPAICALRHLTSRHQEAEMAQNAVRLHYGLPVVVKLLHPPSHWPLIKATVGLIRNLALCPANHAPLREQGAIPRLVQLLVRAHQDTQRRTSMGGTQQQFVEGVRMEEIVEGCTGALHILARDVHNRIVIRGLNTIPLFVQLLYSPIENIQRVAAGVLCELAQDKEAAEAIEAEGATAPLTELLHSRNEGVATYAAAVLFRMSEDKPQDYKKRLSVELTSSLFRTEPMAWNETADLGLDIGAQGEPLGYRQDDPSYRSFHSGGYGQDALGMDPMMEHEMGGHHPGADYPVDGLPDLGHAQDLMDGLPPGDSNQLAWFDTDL
UniProt O14744: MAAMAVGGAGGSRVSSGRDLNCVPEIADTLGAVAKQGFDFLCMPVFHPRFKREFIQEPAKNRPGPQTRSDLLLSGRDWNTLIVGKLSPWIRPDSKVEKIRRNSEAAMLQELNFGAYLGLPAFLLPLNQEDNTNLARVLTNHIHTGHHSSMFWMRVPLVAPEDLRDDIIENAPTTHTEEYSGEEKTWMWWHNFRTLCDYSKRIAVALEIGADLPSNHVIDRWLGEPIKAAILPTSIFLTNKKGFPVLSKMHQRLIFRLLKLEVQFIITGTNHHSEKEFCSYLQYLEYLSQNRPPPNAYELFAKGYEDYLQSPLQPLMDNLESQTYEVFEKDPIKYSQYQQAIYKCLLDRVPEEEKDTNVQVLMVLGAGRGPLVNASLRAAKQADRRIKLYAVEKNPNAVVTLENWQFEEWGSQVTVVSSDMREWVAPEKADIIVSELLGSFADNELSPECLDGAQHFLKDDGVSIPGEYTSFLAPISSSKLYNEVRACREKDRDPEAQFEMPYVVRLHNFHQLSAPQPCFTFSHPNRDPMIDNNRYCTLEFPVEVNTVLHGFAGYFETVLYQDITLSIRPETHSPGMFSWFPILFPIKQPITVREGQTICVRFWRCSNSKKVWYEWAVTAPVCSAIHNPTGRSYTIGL
UniProt O15379: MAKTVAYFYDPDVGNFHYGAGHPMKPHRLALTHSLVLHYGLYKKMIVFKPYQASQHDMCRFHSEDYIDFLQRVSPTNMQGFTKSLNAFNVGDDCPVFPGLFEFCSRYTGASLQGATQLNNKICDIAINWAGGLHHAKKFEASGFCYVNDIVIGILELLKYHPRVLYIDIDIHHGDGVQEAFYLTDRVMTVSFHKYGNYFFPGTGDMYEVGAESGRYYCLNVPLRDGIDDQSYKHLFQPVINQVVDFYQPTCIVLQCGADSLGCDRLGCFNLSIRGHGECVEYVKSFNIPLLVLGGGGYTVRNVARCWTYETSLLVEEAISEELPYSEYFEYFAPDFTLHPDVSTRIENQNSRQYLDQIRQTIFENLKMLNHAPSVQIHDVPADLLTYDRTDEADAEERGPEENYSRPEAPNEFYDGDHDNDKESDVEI
UniProt P05412: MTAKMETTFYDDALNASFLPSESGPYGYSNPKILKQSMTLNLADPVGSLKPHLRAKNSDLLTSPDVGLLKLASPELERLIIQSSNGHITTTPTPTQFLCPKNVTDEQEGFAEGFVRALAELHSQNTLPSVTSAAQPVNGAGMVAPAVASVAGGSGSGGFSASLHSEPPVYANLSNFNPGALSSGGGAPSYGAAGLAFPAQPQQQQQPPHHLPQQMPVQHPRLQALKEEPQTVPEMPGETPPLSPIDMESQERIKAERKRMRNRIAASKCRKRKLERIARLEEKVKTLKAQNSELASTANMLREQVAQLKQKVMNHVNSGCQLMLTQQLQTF

Legend:
[1] = molecular target: T1, Jun Dimerization Protein 2 (JDP2) (human (endogenous in 293FT and the other indicated cells)) (UniProt Q8WYK2); test: co-IP; IP with antibodies to β-catenin, JDP2, PRMT5 or ATM from the indicated cells treated with CPT (10 μM, 1 h), compared with untreated cells in several panels; also siRNA to β-catenin or PRMT5, ATM inhibitor KU55933 (10 μM, 1 h) pretreatment, transfected fragments, mutants or Flag-β-catenin
T1 sequence: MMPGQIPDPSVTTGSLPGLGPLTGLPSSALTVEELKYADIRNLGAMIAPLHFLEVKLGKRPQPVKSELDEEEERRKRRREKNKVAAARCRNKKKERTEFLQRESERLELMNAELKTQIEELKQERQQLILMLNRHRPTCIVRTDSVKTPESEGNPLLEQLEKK

[2] = molecular target: T2, Human recombinant His-JDP2 protein (human) (UniProt Q8WYK2); test: co-IP; in vitro binding assay: Flag antibody-immunoprecipitated lysates of CPT-treated cells transfected with Flag-β-catenin, added to recombinant His-JDP2 and recombinant histone; anti-His antibody; only the target purified
T2 sequence: T1 sequence

[3] = molecular target: β-catenin (human (endogenous in 293FT, OVCAR3, MCF-7, A549)) (UniProt P35222); test: co-IP; untreated cells (no CPT)
[4] = molecular target: β-catenin (human (endogenous in 293FT, OVCAR3, MCF-7, A549)) (UniProt P35222); test: co-IP; IP with antibodies to β-catenin, JDP2, PRMT5 or ATM from the indicated cells treated with CPT (10 μM, 1 h), compared with untreated cells in several panels; also siRNA to β-catenin or PRMT5, ATM inhibitor KU55933 (10 μM, 1 h) pretreatment, transfected fragments, mutants or Flag-β-catenin
[5] = molecular target: arginine methyltransferase 5 (PRMT5) (human (endogenous in 293FT and the other indicated cells)) (UniProt O14744); test: as above
[6] = molecular target: arginine methyltransferase 5 (PRMT5) (human (endogenous in 293FT and the other indicated cells)) (UniProt O14744); test: co-IP; untreated cells (no CPT)
[7] = molecular target: β-catenin (human (endogenous in 293FT, OVCAR3, MCF-7, A549)) (UniProt P35222); test: far-Western, overlay or dot blot; proteins immunoprecipitated by anti-β-catenin antibody separated by SDS-PAGE and transferred to PVDF; recombinant His-JDP2 at 5 μg/ml, 4 °C, 18 h; detected with anti-His, reblotted with anti-β-catenin; only the binder purified
[8] = molecular target: T1, Jun Dimerization Protein 2 (JDP2) (human (endogenous in 293FT and the other indicated cells)); test: co-IP; IP with antibodies to β-catenin, JDP2, PRMT5 or ATM from the indicated cells treated with CPT (10 μM, 1 h), compared with untreated cells in several panels; also siRNA to β-catenin or PRMT5, ATM inhibitor KU55933 (10 μM, 1 h) pretreatment, transfected fragments, mutants or Flag-β-catenin; remark: listed apart in the source

Molecule: HDAC3 (from UniProt O15379 1-428) (enzyme)
binding [1]: binds

Molecule: Flag-tagged β-catenin (from UniProt P35222 1-781)
binding [2]: binds | binding [1]: binds

B2: JDP2/T116A mutant (protein, UniProt Q8WYK2 1-163)
chain: T1 sequence with T116A
binding [5]: no binding

B4: Human recombinant His-JDP2 protein (protein, UniProt Q8WYK2 1-163)
chain: T1 sequence
binding [7]: binds

B5: ATF3 (protein, UniProt P18847 1-181)
chain: MMLQHPGQVSASEVSASAIVPCLSPPGSLVFEDFANLTPFVKEELRFAIQNKHLCHRMSSALESVTVSDRPLGVSITKAEVAPEEDERKKRRRERNKIAAAKCRNKKKEKTECLQKESEKLESVNAELKAQIEELKNEKQHLIYMLNLHRPTCIVRAQNGRTPEDERNLFIQQIKEGTLQS
binding [8]: binds

Further lines, with some results ahead:

binding [1]: binds
Molecule: c-Jun (from UniProt P05412 1-331)

binding [4]: binds | binding [5]: binds
B1: Jun Dimerization Protein 2 (JDP2) (protein, UniProt Q8WYK2 1-163)
chain: T1 sequence
binding [3]: no binding (condition: untreated cells (without CPT))

binding [6]: binds
B3: phosphomimetic JDP2/T116D mutant (protein, UniProt Q8WYK2 1-163)
chain: T1 sequence with T116D
